Assay results from PMC4336329 (PLoS ONE, 2015).
Out of some 310,000 compounds screened, about 14,000 (4.5%) showed an effect of 50% or more. Effects have a minus sign here. This is one part of the list.

target: human ether-à-go-go-related gene (hERG) potassium channel (human, UniProt Q12809); assay: primary screen, population patch clamp on CHO cells stably expressing hERG
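Note: peak tail current of the secondary pulse compared with the same well before compound.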

human ether-à-go-go-related gene (hERG) potassium channel, sequence (Q12809 whole entry, looked up): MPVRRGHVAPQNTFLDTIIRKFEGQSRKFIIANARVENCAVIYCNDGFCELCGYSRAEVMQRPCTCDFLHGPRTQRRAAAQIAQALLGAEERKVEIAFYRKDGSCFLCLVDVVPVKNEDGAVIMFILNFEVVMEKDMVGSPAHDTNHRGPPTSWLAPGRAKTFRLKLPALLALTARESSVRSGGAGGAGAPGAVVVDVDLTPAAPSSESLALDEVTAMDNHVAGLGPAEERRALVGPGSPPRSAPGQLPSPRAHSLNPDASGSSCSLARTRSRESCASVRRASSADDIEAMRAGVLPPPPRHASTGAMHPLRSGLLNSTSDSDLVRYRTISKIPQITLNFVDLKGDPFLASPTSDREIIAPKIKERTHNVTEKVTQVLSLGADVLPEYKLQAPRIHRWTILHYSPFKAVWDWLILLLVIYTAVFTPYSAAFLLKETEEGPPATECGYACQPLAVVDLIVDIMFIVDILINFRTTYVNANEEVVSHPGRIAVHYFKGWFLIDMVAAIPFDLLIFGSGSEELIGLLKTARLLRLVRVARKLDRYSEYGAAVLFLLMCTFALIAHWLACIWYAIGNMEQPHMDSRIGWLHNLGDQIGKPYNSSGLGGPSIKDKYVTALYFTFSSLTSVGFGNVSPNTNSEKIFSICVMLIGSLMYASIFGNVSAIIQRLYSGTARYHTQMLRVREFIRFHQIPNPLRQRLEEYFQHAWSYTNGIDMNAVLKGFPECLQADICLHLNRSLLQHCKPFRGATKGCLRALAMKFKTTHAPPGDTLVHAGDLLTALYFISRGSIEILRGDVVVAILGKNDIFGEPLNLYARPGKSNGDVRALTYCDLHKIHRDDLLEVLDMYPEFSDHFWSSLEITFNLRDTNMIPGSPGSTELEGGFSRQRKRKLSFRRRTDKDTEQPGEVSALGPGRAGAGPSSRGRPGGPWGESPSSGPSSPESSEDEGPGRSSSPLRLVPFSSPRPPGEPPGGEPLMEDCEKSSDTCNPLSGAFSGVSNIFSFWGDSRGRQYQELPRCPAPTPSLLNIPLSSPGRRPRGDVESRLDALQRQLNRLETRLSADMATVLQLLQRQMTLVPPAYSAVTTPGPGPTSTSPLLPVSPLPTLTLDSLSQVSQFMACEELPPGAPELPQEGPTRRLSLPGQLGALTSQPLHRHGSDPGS

In order of falling “hERG current change (%, negative = inhibition) at 10uM” value:
1. CC1CCN(c2nc(-c3ccccc3O)nc3ccccc23)CC1  33.4%
2. Cc1ccc[n+](CC(=O)Nc2nc3ccccc3s2)c1.[Cl-]  23.3%
3. CCOc1ccc(Br)cc1C(=O)N/N=C/c1cccc(C)n1  20.1%
4. Nc1nc(Nc2ccc(Cl)cc2)c(NC=O)c(=O)[nH]1  19.7%
5. Cc1[nH][nH]c(=O)c1C(c1ccc(-c2cccc(C(=O)O)c2)o1)c1c(C)[nH][nH]c1=O  19.2%
6. CC(=O)c1ccc(OCC(=O)OCC(=O)NCc2ccco2)cc1  17.2%
7. O=c1c2cc(Cl)ccc2nc(-c2ccccc2Cl)n1O  16.4%
8. CCCCCCc1nc(C(N)=O)c2[nH]c(=O)n(-c3ccccc3F)c2n1  16%
9. C/C(=C\c1ccccc1F)C(=O)c1c(C)cc(C)[nH]c1=O  15.9%
10. O=C(Cc1ccccc1F)Nc1ccc(S(=O)(=O)Nc2ncccn2)cc1  14.8%
11. COc1cccc(/C=N\NC(=O)Cn2nnc3ccccc32)c1O  14.2%
12. COc1ccc(NC(=O)COc2nsnc2N2CCOCC2)c(OC)c1  14%
13. Cc1ccc(CN2C(=O)CCC2C(=O)NC2CCCC2)cc1 (centres unmarked)  13.6%
14. CCn1c(=S)sc2c(=O)[nH]c(C)nc21  13.3%
15. CCCCn1c(N)c(N(CC(C)C)C(=O)COC(=O)c2ccccc2NCCO)c(=O)[nH]c1=O  11.4%
16. COc1ccccc1C1=CC(=O)C[C@H](c2ccc3c(c2)OCO3)C1  11.2%
17. O=C(NNC(=O)[C@@H]1CCCC[C@@H]1C(=O)O)Nc1ccccc1  10.5%
18. CCNc1nc(NCC)nc(OCCOC(C)=O)n1  9.95%
19. O=C(Cc1ccccc1)Nc1ccc(C(=O)Nc2ccc(O)cc2)cc1  8.9%
20. N#CCC(=O)Nc1ccc(C(=O)OCC(=O)NCc2ccc3c(c2)OCO3)cc1  8.67%
21. CCN(CC)/C(N)=N/c1nc(C)cc(C)n1  7.16%
22. CC(O)CNc1ccc([N+](=O)[O-])cc1S(=O)(=O)N1CCOCC1 (centres unmarked)  5.9%
23. C=Cn1ccnc1P(O)(=S)c1nc(C)c(CCOC(C)=O)s1 (centres unmarked)  4.85%
24. CCCCCn1c(=S)[nH]c2ncccc2c1=O  3.94%
25. O=C(O)CC(c1cccc(C(F)(F)F)c1)N1CCS(=O)(=O)CC1 (centres unmarked)  2.42%
26. Cc1occc1C(=O)NNC(=O)c1ccccc1Br  1.82%
27. Cc1ccc(CSc2ncn(-c3ccccc3)n2)cc1  1.74%
28. CC(C)(C)c1cc(NC(=O)COC(=O)c2nccnc2N)n(-c2ccccc2)n1  0.121%
29. Cc1cccc(NC(=O)CSc2n[nH]c(-c3cccnc3)n2)c1  -0.145%
30. O=C1CN(c2cc(Cl)cc(Cl)c2)C(=O)CN1/N=C/c1cccnc1  -1.49%
31. CC(=O)N1c2ccccc2NC2=C(C(=O)CCC2)C1c1ccc(F)cc1 (centres unmarked)  -1.85%
32. CC(C)(C)c1ccc(C(=O)NCc2cccnc2)cc1  -2.42%
33. O=C(NCc1ccc2c(c1)OCO2)c1ccccc1Cl  -2.6%
34. CC(=O)c1cccc(S(=O)(=O)N2CCN(c3ccccc3F)CC2)c1  -4.13%
35. CC12CC(c3ccccc3O1)C(/C(N)=N/NC(=O)c1ccc(F)cc1)C(=O)N2 (centres unmarked)  -6.21%
36. O=C(NCc1ccc(Cl)cc1)C(=O)NCC1OCCN1S(=O)(=O)c1ccc2c(c1)OCCO2 (centres unmarked)  -7.02%
37. O=C(C1CCN(S(=O)(=O)c2ccc(Cl)cc2)CC1)N1CCCC1  -7.8%
38. CN1C(=O)C(C)(C)c2cc(S(=O)(=O)N3CCCC(C(=O)NCc4ccc(F)cc4)C3)ccc21 (centres unmarked)  -9.6%
39. O=C(COc1cc2oc(=O)c3c(c2cc1Cl)CCC3)N1C[C@H]2C[C@@H](C1)c1cccc(=O)n1C2  -12.8%
40. CCOC(=O)N1CCN(C(=O)CCCn2c(=O)[nH]c3ccccc3c2=O)CC1  -13.1%
41. CCC(C)[C@H]1COCCS(=O)(=O)N1Cc1ccc(Cl)cc1Cl (some centres unmarked)  -14.6%
42. COc1c(S(=O)(=O)NCCN2CCOCC2)ccc(Cl)c1Cl  -16.3%
43. CCOC(=O)C(C)Oc1cc(C)cc2oc(=O)c3c(c12)CCCC3 (centres unmarked)  -16.4%
44. Cc1cc(C)n(CCC(=O)N/N=C/c2cccc([N+](=O)[O-])c2)n1  -17.2%
45. Cc1ccc(NC(=O)c2ccc3c(c2)OCO3)cc1S(=O)(=O)N1CCOCC1  -20.3%
46. Cc1cc(SCC(=O)OCC(=O)N2CCCC2=O)c(C)cc1Br  -24.6%
47. O=C(COc1cccc2cccnc12)NNC(=S)Nc1ccccc1  -25.8%
48. CCCn1nc(C(=O)N2CCN(S(=O)(=O)c3ccc(C)c(C)c3)CC2)c2ccccc2c1=O  -28.3%
49. CC1(C)CC(=O)C2=C(C1)N=C1SCCC(=O)N1C2c1ccc(C(F)(F)F)cc1 (centres unmarked)  -28.5%
50. O=c1c(-c2ccc(Cl)cc2)coc2c(CN3CCCCC3)c(O)ccc12  -32.7%
51. CCCNC(=O)CN1CCN(S(=O)(=O)c2ccc(Br)s2)CC1  -34.5%
52. COC(=O)c1sccc1NC(=O)CC1C(=O)NCCN1C(=O)c1ccc(F)cc1 (centres unmarked)  -40.7%
53. CN1CCN(S(=O)(=O)c2ccc(Nc3ccc(F)cc3)c([N+](=O)[O-])c2)CC1  -51.3%
54. O=C(NNC(=O)c1cccc(S(=O)(=O)N2CCN(c3ccccc3)CC2)c1)c1ccc(Cl)cc1  -59.5%
55. O=C(CSc1nc(=O)n(CCCN2CCOCC2)c2c1CCCC2)Nc1cccc(Cl)c1  -62.2%
56. O=C(Nc1cccc(C(F)(F)F)c1)c1csc(-c2ccncc2)n1  -68.6%
